{"source": "the BET-seq Pho4 binding data (Le et al. 2018)", "note": "This is one part of the list. Values were computed here from the reads of four pooled replicates and scatter widely."}
{"target": "T1, Pho4 (S. cerevisiae) (UniProt P07270)", "T1 sequence": "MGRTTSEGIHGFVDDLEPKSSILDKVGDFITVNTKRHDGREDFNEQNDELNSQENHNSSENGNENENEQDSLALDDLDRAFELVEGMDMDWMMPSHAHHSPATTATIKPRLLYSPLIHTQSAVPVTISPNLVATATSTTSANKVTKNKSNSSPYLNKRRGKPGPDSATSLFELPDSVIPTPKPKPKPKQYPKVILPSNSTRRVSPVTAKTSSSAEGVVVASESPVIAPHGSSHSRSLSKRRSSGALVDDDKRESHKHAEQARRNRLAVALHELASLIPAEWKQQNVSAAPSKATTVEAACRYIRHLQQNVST", "assay": "relative binding free energy (BET-seq); higher = weaker binding", "conditions": "reference: library average", "units": {"relative binding free energy": "kcal/mol"}}
{"sequence": "GGAGGCACGTGGTAAG", "relative binding free energy": -0.13}
{"sequence": "GCAATCACGTGAGGTG", "relative binding free energy": 0.46}
{"sequence": "TGATTCACGTGACGTG", "relative binding free energy": 0.25}
{"sequence": "TTTTGCACGTGTAATG", "relative binding free energy": 0.13}
{"sequence": "TATCTCACGTGGATTG", "relative binding free energy": 0.22}
{"sequence": "TTAAGCACGTGAGAGA", "relative binding free energy": 0.24}
{"sequence": "CGGGTCACGTGGGGAA", "relative binding free energy": 0}
{"sequence": "CTTGGCACGTGTGTCG", "relative binding free energy": -0.13}
{"sequence": "TAATGCACGTGGGGGG", "relative binding free energy": -0.2}
{"sequence": "CTTGTCACGTGATTTG", "relative binding free energy": 0.29}
{"sequence": "GTGCACACGTGGGTGA", "relative binding free energy": -0.03}
{"sequence": "GGTGTCACGTGCTAGT", "relative binding free energy": 0.04}
{"sequence": "TCGTTCACGTGGGTAT", "relative binding free energy": 0.37}
{"sequence": "GTTTTCACGTGGTATG", "relative binding free energy": 0.33}
{"sequence": "CGACTCACGTGGGTGG", "relative binding free energy": 0.14}
{"sequence": "CGGAGCACGTGAGTGT", "relative binding free energy": 0.12}
{"sequence": "ATTTACACGTGTAATG", "relative binding free energy": 0.14}
{"sequence": "TAATGCACGTGAGTGG", "relative binding free energy": 0.1}
{"sequence": "GTAGGCACGTGAGGCG", "relative binding free energy": 0.18}
{"sequence": "TGCGTCACGTGTCGAG", "relative binding free energy": 0.17}
{"sequence": "GGCTTCACGTGAGGTT", "relative binding free energy": 0.42}
{"sequence": "AGAGTCACGTGGGCTT", "relative binding free energy": 0.01}
{"sequence": "TAATCCACGTGTGTGT", "relative binding free energy": -0.03}
{"sequence": "TTGCGCACGTGCGGGG", "relative binding free energy": -0.17}
{"sequence": "AGGATCACGTGGAGTT", "relative binding free energy": 0.16}
{"sequence": "ATTCCCACGTGGTGGG", "relative binding free energy": -0.14}
{"sequence": "AAGCGCACGTGGGATT", "relative binding free energy": -0.11}
{"sequence": "TGTATCACGTGCGTGA", "relative binding free energy": -0.01}
{"sequence": "AAAGTCACGTGTCTGT", "relative binding free energy": 0.3}
{"sequence": "ACTGTCACGTGGCGTG", "relative binding free energy": 0.13}
{"sequence": "GAGTGCACGTGAAAGT", "relative binding free energy": 0.34}
{"sequence": "AAGTGCACGTGCTGTA", "relative binding free energy": -0.14}
{"sequence": "TTGTTCACGTGGTTCA", "relative binding free energy": 0.13}
{"sequence": "TGAGTCACGTGTAGCG", "relative binding free energy": 0.25}
{"sequence": "GATGACACGTGGTTTT", "relative binding free energy": 0.05}
{"sequence": "GTAAGCACGTGAATGA", "relative binding free energy": 0.42}
{"sequence": "GGGGGCACGTGGAAAG", "relative binding free energy": -0.05}
{"sequence": "ACAGGCACGTGTGTTG", "relative binding free energy": -0.27}
{"sequence": "CGGGGCACGTGAGTTG", "relative binding free energy": 0.14}
{"sequence": "TGGCTCACGTGATTAG", "relative binding free energy": 0.25}
{"sequence": "CTTATCACGTGGGGAA", "relative binding free energy": 0.07}
{"sequence": "TTCGGCACGTGAATGT", "relative binding free energy": 0.12}
{"sequence": "TTATTCACGTGCTGTC", "relative binding free energy": 0.21}
{"sequence": "TAGAGCACGTGTTTTA", "relative binding free energy": -0.12}
{"sequence": "TAATGCACGTGGGACT", "relative binding free energy": 0.01}
{"sequence": "AGTTGCACGTGAATAT", "relative binding free energy": 0.2}
{"sequence": "GTATTCACGTGATGGC", "relative binding free energy": 0.43}
{"sequence": "TCAGGCACGTGATGAG", "relative binding free energy": 0.01}
{"sequence": "AGTAACACGTGTGTAA", "relative binding free energy": -0.07}
{"sequence": "TTATGCACGTGGGCCT", "relative binding free energy": -0.19}
{"sequence": "TTGTGCACGTGGGTGA", "relative binding free energy": -0.11}
{"sequence": "TGTGGCACGTGGTGTG", "relative binding free energy": -0.13}
{"sequence": "GTTAACACGTGTGGTA", "relative binding free energy": 0.02}
{"sequence": "GCATTCACGTGTTTTA", "relative binding free energy": 0.17}
{"sequence": "GGTAGCACGTGTGATT", "relative binding free energy": -0.04}
{"sequence": "TGAGTCACGTGTGCTG", "relative binding free energy": 0.05}
{"sequence": "GTGCTCACGTGTGGCT", "relative binding free energy": 0.25}
{"sequence": "GTTGGCACGTGTCTGC", "relative binding free energy": -0.04}
{"sequence": "CGGGGCACGTGATGTG", "relative binding free energy": -0.03}
{"sequence": "GGTCACACGTGAGGGT", "relative binding free energy": 0.32}
{"sequence": "TGGGACACGTGCATGT", "relative binding free energy": -0.11}
{"sequence": "GCTGTCACGTGTGGGT", "relative binding free energy": 0.25}
{"sequence": "TATTTCACGTGTAACG", "relative binding free energy": 0.46}
{"sequence": "AGTGGCACGTGTTAAC", "relative binding free energy": -0.06}
{"sequence": "TAAAGCACGTGTGGAA", "relative binding free energy": 0.05}
{"sequence": "AATTTCACGTGACTGG", "relative binding free energy": 0.42}
{"sequence": "GTAGGCACGTGTTGCT", "relative binding free energy": 0.05}
{"sequence": "TTTCCCACGTGTTTAT", "relative binding free energy": 0.15}
{"sequence": "GGTCACACGTGTTGGT", "relative binding free energy": 0.12}
{"sequence": "ATTTTCACGTGCGCGT", "relative binding free energy": 0.26}
{"sequence": "GGTTACACGTGATCTT", "relative binding free energy": 0.16}
{"sequence": "CTATTCACGTGCTGGG", "relative binding free energy": 0.25}
{"sequence": "TCATTCACGTGTATTT", "relative binding free energy": 0.3}
{"sequence": "AACGTCACGTGGTGGT", "relative binding free energy": 0.02}
{"sequence": "GGAGGCACGTGTGCCG", "relative binding free energy": -0.04}
{"sequence": "TGTGTCACGTGGATTA", "relative binding free energy": 0.11}
{"sequence": "TTGTCCACGTGGGATT", "relative binding free energy": 0.02}
{"sequence": "ATGTGCACGTGCTCGG", "relative binding free energy": -0.15}
{"sequence": "AGCTTCACGTGGTTGA", "relative binding free energy": 0.2}
{"sequence": "GTGCGCACGTGCGGTT", "relative binding free energy": -0.03}
{"sequence": "TGGTTCACGTGCGCAT", "relative binding free energy": 0.11}
{"sequence": "TGAGACACGTGGTAGC", "relative binding free energy": 0.14}
{"sequence": "CGTGTCACGTGATGCA", "relative binding free energy": 0.13}
{"sequence": "TTGTCCACGTGTATAT", "relative binding free energy": -0.01}
{"sequence": "AATGGCACGTGGCCGT", "relative binding free energy": -0.14}
{"sequence": "CGCAGCACGTGGGGCG", "relative binding free energy": -0.18}
{"sequence": "GGTAGCACGTGTGGAT", "relative binding free energy": -0.03}
{"sequence": "GAGTGCACGTGTCGAT", "relative binding free energy": 0.07}
{"sequence": "TTTGTCACGTGTGTCG", "relative binding free energy": 0.1}
{"sequence": "TGGTTCACGTGTGTTG", "relative binding free energy": 0.28}
{"sequence": "GAAGGCACGTGGTCCG", "relative binding free energy": -0.01}
{"sequence": "TCCTTCACGTGTTTTG", "relative binding free energy": 0.25}
{"sequence": "AGCATCACGTGTGGGA", "relative binding free energy": 0.09}
{"sequence": "TCTAGCACGTGCGGTA", "relative binding free energy": -0.04}
{"sequence": "ATGCACACGTGGAGGT", "relative binding free energy": -0.05}
{"sequence": "GCTGCCACGTGGTGGA", "relative binding free energy": 0.05}
{"sequence": "TGTCGCACGTGGTACG", "relative binding free energy": -0.18}
{"sequence": "AGTGTCACGTGCATTA", "relative binding free energy": 0.01}
{"sequence": "GGTGTCACGTGGGTCC", "relative binding free energy": -0.05}
{"sequence": "TGAATCACGTGTTGTC", "relative binding free energy": 0.27}
{"sequence": "AGGGTCACGTGTTATA", "relative binding free energy": 0.04}
{"sequence": "TATGTCACGTGAGCTT", "relative binding free energy": 0.19}
{"sequence": "GGGCCCACGTGTGGCG", "relative binding free energy": 0.1}
{"sequence": "GAGCACACGTGGTTGG", "relative binding free energy": 0.12}
{"sequence": "ACTGACACGTGTTTTT", "relative binding free energy": 0.11}
{"sequence": "AGTTACACGTGAGATG", "relative binding free energy": 0.27}
{"sequence": "TTCAGCACGTGATGGG", "relative binding free energy": -0.05}
{"sequence": "AGATTCACGTGTATAA", "relative binding free energy": 0.28}
{"sequence": "CTGTTCACGTGGGGTA", "relative binding free energy": 0.2}
{"sequence": "TAAGTCACGTGATGCT", "relative binding free energy": 0.15}
{"sequence": "AAAGGCACGTGGACGT", "relative binding free energy": -0.11}
{"sequence": "TACGGCACGTGTTTAG", "relative binding free energy": -0.05}
{"sequence": "AGGTTCACGTGTGAGA", "relative binding free energy": 0.29}
{"sequence": "TTTTGCACGTGGTACG", "relative binding free energy": -0.01}
{"sequence": "TTCATCACGTGGAATT", "relative binding free energy": 0.24}
